# Reference: PubChem BioAssay (NCATS)
# The inconclusive results got no clear call from the source; some entries with a clear call stand among them for comparison. No potency is given beside an inconclusive call; the fits are too rough. Calls of active or inactive are those of the source. The call rests on the fitted dose curve; in most records, active means well fitted cell-killing curve with a large enough effect; inconclusive means small, poorly fitted or top-dose-only effect; inactive means no such curve, though single readings can be large or run the other way.
# Assay: qHTS of pediatric cancer cell lines to identify multiple opportunities for drug repurposing: Primary screen for SK-N-SH cells (AID 1347098); further: nearly all actives have a fitted effect of over 65% in size
# Settings: SK-N-SH viability, CellTiter-Glo luminescence, 48 h; series mostly up to 57 µM
# Source text: Drug repurposing or repositioning has been offered as a strategy for drug development in oncology programs. This approach has special potential for childhood cancers and other rare or orphan diseases, where the expected return on new drug development has been a disincentive to pharmaceuticals.
# In this project we exploit the poly-pharmacology of drugs to discover new indications via phenotypic screening of a panel of 19 well-characterized cell lines derived from solid tumors seen in children and adolescents. The goal is to identify approved drugs with previously unrecognized anticancer properties that has the potential to reveal new mechanisms and biological processes involved in carcinogenesis or drug resistance. We employed a titration-based paradigm (quantitative high-throughput screening or qHTS), where all compounds were tested at multiple concentrations for their effect on cell viability. Concentration-response curves (CRCs) were derived directly from the primary screen, and both potency and efficacy values were used to identify compounds with robust bioactivity profiles. We screened the NIH Chemical Genomics Center (NCGC) Pharmaceutical Collection (NPC) and Mechanism Interrogation Plate (MIPE) small molecule collections of approved and investigational compounds against these cell lines; and measured metabolically active cells after 48 hours of compound treatment as a proxy for cell viability.
# Assay Submitter: Nathalia J. Martinez, National Center for Advancing Translational Sciences, National Institutes of Health, Rockville, MD, USA; email: natalia.martinez@nih.gov
# [1] Shen, M et al. Quantitative high-throughput phenotypic screening of pediatric cancer cell lines identifies multiple opportunities for drug repurposing. Oncotarget 2017 Dec 19;9(4):4758-4772. PMID 29435139.
# The cells were obtained from University of North Carolina (UNC), Pediatric Preclinical Testing Program (PPT), and Coriell Institute (CI).
# qHTS cell viability assay:
# Cells were assayed in growth media at a density of 500-1,000 cells/well. Five microliters of cells were dispensed into 1,536-well, white, solid-bottom, TC-treated plates (Greiner Bio One) using a multidrop dispenser and incubated at 37 degrees C, 5% CO2, under a humidified atmosphere for 5 hours. Twenty-three nanoliters of compounds and controls (neutral control DMSO or positive control bortezomib at final concentration of 2.3 µM) were subsequently transferred by Kalypsys pintool. For primary screens, the MIPE collection was tested at 11-point dilutions (final concentrations range from 0.78 nM to 46 µM) and the NPC collection at 8-point dilutions (final concentrations range from 0.59 nM to 46 µM). Compounds tested in follow-up screens were assayed at 11-point dilutions. Cells were incubated for 48 hours, followed by addition of 3 µL of CellTiter-Glo (Promega). After a 15 min incubation at room temperature, samples were analyzed for luminescence intensity using a ViewLux High-throughput CCD imager equipped with clear filters.
# Potency means the concentration at half of the fitted maximal effect; tags describe the fitted curve by direction and shape.
row,SMILES,Potency
1,Nc1ccc(C(=O)OCC(O)CO)cc1 (stereo not given),inactive
2,CO[C@@H]1[C@@H](O[C@@H]2O[C@H](C)[C@@H](O[C@H]3C[C@@](C)(O)[C@@H](O)[C@H](C)O3)[C@H](N(C)C)[C@H]2O)[C@@H](CC=O)C[C@@H](C)[C@@H](O[C@@H]2CC[C@H](N(C)C)[C@@H](C)O2)/C=C/C=C/C[C@@H](C)OC(=O)C[C@H]1OC(C)=O,"inconclusive [cytotoxic, partial curve]"
3,O=C1OC(OC(=O)c2cccnc2Nc2cccc(C(F)(F)F)c2)c2ccccc21 (stereo not given),inactive
4,CCCCCCCCCCOCC(O)CN (stereo not given),"inconclusive [cytotoxic, single point]"
5,CN1CCN(CCC(=O)N2c3ccccc3Sc3ccc(C(F)(F)F)cc32)CC1,active: 9.7 µM
6,CCOc1cc2c(c(F)c1OCC)C(=N)N(CC(=O)c1cc(N3CCOCC3)c(OC)c(C(C)(C)C)c1)C2,"inconclusive [cytotoxic, partial curve]"
7,CCCCS(=O)(=O)N[C@@H](Cc1ccc(OCCCCC2CCNCC2)cc1)C(=O)O,"inconclusive [cytotoxic, partial curve, poor fit]"
8,CC(C)(C)C(=O)C(Oc1ccc(Cl)cc1)n1ccnc1 (stereo not given),active: 24.4 µM
9,CCS(=O)(=O)Nc1ccc2[nH]c(O)c(C(=Nc3ccc(CN4CCCCC4)cc3)c3ccccc3)c2c1,active: 1.21 µM
10,Cc1nc2n(c(=O)c1CCN1CCC(C(=O)c3ccc(F)cc3)CC1)CCS2,inactive
11,Cn1cc(C(=O)[C@@H]2CCc3nc[nH]c3C2)c2ccccc21,"inconclusive [cytotoxic, single point]"
12,NCCNCCNCCN,inactive
13,NS(=O)(=O)c1ccc(Cl)c(S(N)(=O)=O)c1,inactive
14,COc1ccc(C(=O)c2ccccc2O)c(O)c1,"inconclusive [cytotoxic, partial curve, poor fit]"
15,CCCCNc1c(C(=O)OCC)c(C)nc2c1cnn2CC,"inconclusive [cytotoxic, partial curve, poor fit]"
16,NC(=O)Nc1sc(-c2ccc(F)cc2)cc1C(N)=O,active: 5.41 µM
17,CC(=O)Oc1ccc(C2(c3ccc(OC(C)=O)cc3)Oc3ccccc3NC2=O)cc1,"inconclusive [cytotoxic, full curve]"
18,CCOCCn1c(C2CCN(CCc3ccc(C(C)(C)C(=O)O)cc3)CC2)nc2ccccc21,"inconclusive [cytotoxic, full curve, poor fit]"
19,COc1cc2c(cc1O)CCC1C2CC[C@@]2(C)C1CC[C@@H]2O (stereo not given in full),"inconclusive [cytotoxic, full curve]"
20,C#C[C@]1(O)CC[C@H]2[C@@H]3CCc4cc(OC)ccc4[C@H]3CC[C@@]21C,"inconclusive [cytotoxic, single point]"

row,SMILES,Potency
1,CCCCCCCCCCCCCC[N+](C)(C)Cc1ccccc1,active: 30.7 µM
2,NC1(Cc2ccc(Cl)cc2)CCN(c2ncnc3[nH]ccc23)CC1,active: 27.1 µM
3,COc1cc(C)c(Sc2cnc(NC(=O)c3ccc(CNC(C)C(C)C)cc3)s2)cc1C(=O)N1CCN(C(C)=O)CC1 (stereo not given),active: 12.1 µM
4,CCCCc1cc2ccccc2c(OCCN(C)C)n1,"inconclusive [cytotoxic, single point]"
5,CC(C)=CCOc1ccc(/C=C/C(=O)c2ccc(OCC=C(C)C)cc2OCC(=O)O)cc1,"inconclusive [cytotoxic, single point]"
6,CN1C(C)(C)CCCC1(C)C,"inconclusive [cytotoxic, full curve, poor fit]"
7,O=C1CCc2cc(OCCCCc3nnnn3C3CCCCC3)ccc2N1,"inconclusive [cytotoxic, single point]"
8,C[C@@]12C(=O)OC(=O)[C@@]1(C)C1CCC2O1,active: 3.83 µM
9,CN1CC(=O)N2[C@H](c3ccc4c(c3)OCO4)c3[nH]c4ccccc4c3C[C@@H]2C1=O,inactive
10,CO/N=C(\C(=O)N[C@@H]1C(=O)N2C(C(=O)O)=C(CSc3nc(=O)c(O)nn3C)CS[C@H]12)c1csc(N)n1,inactive
11,CNC(=O)c1ccccc1Sc1ccc2c(/C=C/c3ccccn3)n[nH]c2c1,"inconclusive [cytotoxic, full curve]"
12,CN1C[C@H](C(=O)N[C@]2(C)O[C@@]3(O)[C@@H]4CCCN4C(=O)[C@H](Cc4ccccc4)N3C2=O)C[C@@H]2c3cccc4[nH]cc(c34)C[C@H]21,active: 30.7 µM
13,COC(=O)C1C2CC3c4[nH]c5cc(OC)ccc5c4CCN3CC2CC(OC(=O)c2cc(OC)c(OC)c(OC)c2)C1OC (stereo not given),"inconclusive [cytotoxic, partial curve, poor fit]"
14,COc1cc(C[C@@H](CO)[C@H](CO)Cc2ccc(O)c(OC)c2)ccc1O,active: 1.71 µM
15,CN(C)CCOC(c1ccccc1)c1ccc(Br)cc1 (stereo not given),active: 15.4 µM
16,C[C@H]1O[C@@H](n2cc(F)c(=O)[nH]c2=O)[C@H](O)[C@@H]1O,inactive
17,O=C(O)P(=O)(O)O,inactive
18,CCCNC(C)C(=O)Nc1c(C)csc1C(=O)OC (stereo not given),inactive
19,Cc1cc(Nc2ncnc3ccc(-c4ccc(CNCCS(C)(=O)=O)o4)cc23)ccc1Oc1ccn2ncnc2c1,active: 21.5 µM
20,O=C(N/N=C/c1ccc([N+](=O)[O-])o1)c1ccc(O)cc1,"inconclusive [cytotoxic, single point]"
